# Laboratory results from the supplement of paper PMC3724861.
# Some of the results follow.
# Tested on: T1, Caupolican (Caup) homeodomain DNA-binding domain
# T1 sequence: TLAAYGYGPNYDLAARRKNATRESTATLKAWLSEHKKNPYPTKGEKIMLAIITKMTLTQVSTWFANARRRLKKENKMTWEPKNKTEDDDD
# Assay: PBM E-score (8-mer, recovered from the published 9-mer minima) (E-score (dimensionless, -0.5 to 0.5)); Drosophila protein; higher = stronger relative binding preference, active = 0.31 or more
# Procedure, shortened: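 Caup's homeodomain DNA-binding domain (residues 214-303) was made by in vitro transcription and translation and applied at 100 nM to custom-designed protein binding microarrays. Each value is an enrichment score that gives relative binding preference for a short DNA word, with higher meaning stronger. The 8-mer values were recovered from published 9-mer scores, each of which was the minimum of its two constituent 8-mer scores. A cutoff of 0.31 marks candidate sites.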
row,Sequence,PBM E-score
1,CCTCGCCC,inactive: -0.139
2,ATACTGTG,inactive: 0.122
3,ATTACTCG,inactive: 0.12
4,ATCATTAC,inactive: 0.154
5,ATAGTCGC,inactive: 0.0239
6,CAACCCTA,inactive: -0.00252
7,ATGTGAGA,inactive: 0.151
8,CGTGGCTC,inactive: -0.136
9,AGAACTTG,inactive: 0.105
10,AATGGCTG,inactive: -0.0521
11,GTAGCTTA,inactive: 0.0877
12,CATCCTCC,inactive: -0.00134
13,CGCGGCCA,inactive: -0.26
14,ACAAGAAC,active: 0.316
15,GAGGTAAC,inactive: 0.0556
16,TATCTACA,≥ 0.29
17,CCGCCATC,inactive: -0.174
18,CTAATCAG,inactive: 0.0548
19,ACGGGGCT,inactive: -0.163
20,CAGCACAA,inactive: 0.0492
21,GTTGATTA,inactive: 0.212

row,Sequence,PBM E-score
1,AACCGCAC,inactive: -0.00966
2,CACCGAGA,inactive: -0.0703
3,CCAACTGC,inactive: -0.211
4,AAGCGGGA,inactive: -0.119
5,ACAGCGGA,inactive: 0.0482
6,AGATACAA,inactive: 0.296
7,GGGTCAGA,inactive: -0.221
8,CTCTACAA,inactive: 0.204
9,GAGCATGC,inactive: 0.0543
10,AGCATATA,inactive: 0.119
11,AGCGGCGG,inactive: -0.225
12,TTATATAA,inactive: 0.102
13,CATCATTA,inactive: 0.107
14,CACAATGG,inactive: 0.0289
15,ACATGAAG,inactive: 0.293
16,CCTTGATC,inactive: -0.0434
17,CGCCCCAG,inactive: -0.238
18,ATTTGCAC,inactive: 0.0191
19,CAGCTTAG,inactive: -0.096
20,ATTTTGTG,inactive: 0.0933
21,ACCCGCAT,inactive: 0.00073

row,Sequence,PBM E-score
1,GGCGTCAA,inactive: -0.034
2,GCCCGCCA,inactive: -0.248
3,CCACAGCG,inactive: -0.0529
4,CATAAACG,inactive: 0.121
5,ACACATCG,inactive: 0.156
6,ATAACGGC,inactive: -0.027
7,CTGTCGCA,inactive: -0.00227
8,ACCAGAAT,inactive: 0.0975
9,ATTGCTTA,inactive: 0.106
10,GAGTAAGC,inactive: -0.0782
11,ATACTCAC,inactive: 0.16
12,ATGAGGGG,≥ -0.0196
13,CGTACATC,inactive: 0.263
14,CCGGATTA,inactive: 0.0118
15,AGCGGACC,inactive: -0.25
16,GGTGCTAC,inactive: -0.00473
17,GCACATGC,inactive: -0.0345
18,GATTAGAC,inactive: 0.117
19,TACATGCA,active: 0.371
20,AACGAATC,≥ 0.0936
